Drawing on PubChem BioAssay (NCI), this text covers TGI and GI50 for 33 compounds.

Where “and” joins values, the source holds several entries; their conditions need not be identical. Equal entries are not always repeated.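 Following 48 hours of exposure in 96-well plates, responses at five concentrations were used to interpolate endpoints linearly. GI50 marks 50% less growth. At the TGI there is no net growth.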

In the test the test system is NCI-H322M lung. Kind of test: growth of human tumour cells (NCI), 48 h.
In turn, `O=C(NCc1ccccc1)c1cc2ccccc2oc1=Nc1cccc(C(F)(F)F)c1` gave a TGI of more than 100 µM.
The same measure, in the same setting: to `CN(C)CCn1c(=O)c2ccc(NCCCN(C)CCCNc3ccc4c(=O)n(CCN(C)C)c(=O)n5c6ccc(O)cc6c(=O)c3c45)c3c(=O)c4cc(O)ccc4n(c1=O)c23` belongs 1.52 µM.
Take `OC1(c2ccc(Cl)c(C(F)(F)F)c2)CCN(CCCC(c2ccc(F)cc2)c2ccc(F)cc2)CC1`: the GI50 is 1.18 µM and the TGI amounted to 2.79 µM.
`O=C(NC1C(=O)NNC1c1cccc([N+](=O)[O-])c1)c1ccccc1` (configuration not stated) showed a TGI of more than 100 µM.
For the compound `Cc1nn(-c2ccc(Cl)cc2)c2ncnc(N/N=C/c3ccccc3O)c12`, the GI50 is 0.322 µM and 0.294 µM; the TGI was 24.5 µM and > 55.1 µM.
With `O=c1ccc2ccc(S)cc2o1`, the TGI is more than 100 µM.
On to `c1ccc(-c2[nH]ncc2-c2ccnc(-c3ccc(OCCn4ccnc4)cc3)c2)nc1`, for which the GI50 was more than 25 µM and the TGI is more than 25 µM.
Turning to `O=C(Nc1cccc(-n2cc(-c3ccncc3)c(-c3cc(O)cc(Cl)c3)n2)c1)c1ccc(N2CCOCC2)c(C(F)(F)F)c1`, the GI50 is 2.83 µM and the TGI is more than 100 µM.
`COC(=O)/C=C(\C)CC/C=C(\C)CCC1OC1(C)C` (configuration not stated) gave a TGI of more than 75 µM.
For `c1c[nH]c(-c2cccc3nsnc23)c1`, the TGI is more than 100 µM.
With `O=CC(I)=C(c1ccccc1)c1ccccc1`, the TGI stood at 17.6 µM.
In turn, `NC1=CC(=O)c2c(O)ccc(O)c2C1=O` displayed a TGI of 50.8 µM.
With `c1ccc(-c2c(-c3ccccc3)[n+](Cc3ccc4ccccc4c3)c(-c3ccc(-c4nc5ccccc5s4)cc3)n2Cc2ccc3ccccc3c2)cc1`, the GI50 is 0.327 µM and the TGI worked out at 1.34 µM.
For the compound `CC1=C(C(=O)Nc2ccccc2)C(c2ccc(N(C)C)cc2)C(C(=O)Nc2ccccc2)=C(C)N1`, the TGI was more than 100 µM.
As for `COc1ccc(CNc2cnc3ccc(N)cc3n2)cc1`, the TGI is more than 100 µM.
For the compound `CCN1C(=S)N(CC)C2C1NC(=S)N2/N=C/C=C/c1ccccc1OC` (configuration not stated), the GI50 is 0.661 µM and the TGI was more than 100 µM.
In turn, `Cn1c2ccccc2c2ccc3c(c21)C(=O)c1ccc2c4ccccc4n(C)c2c1C3=O` had a TGI of more than 100 µM.
Same read-out and setting: to `CCOC(=O)CSc1nc(N)c2c(-c3ccccc3)c3c(nc2n1)CCCC3` belongs more than 100 µM.
For the compound `O=C(NCCNCCO)c1ccc2c(c1)oc1cc3ccccc3c(=O)n12`, the GI50 is 0.112 µM and the TGI was found to be 8.2 µM.
`NCCN1CCCCCc2ccccc21` registered a TGI of more than 10 µM.
As to `CCn1c2c(c3ccccc3c1=O)C(=O)c1ccccc1-2`, the TGI is more than 100 µM.
The compound `c1ccc2c(c1)SCCCS2` came in with a TGI of more than 100 µM.
In the case of `Cc1c(C(=N)C(C#N)C#N)c(=N)oc2c1ccc1ccccc12`, the GI50 is 17.5 µM and the TGI was more than 100 µM.
In turn, `COc1cc2ccc3c4cc(OC)c(OC)cc4c[n+](C)c3c2cc1O` yielded a TGI of more than 100 µM.
As to `O=C1NN(C2=NNC3(C(=O)N2)c2ccccc2-c2ccccc23)C(c2ccccc2)=N/C1=C/c1ccc(Cl)cc1`, the GI50 was 81 µg/mL and the TGI is more than 150 µg/mL.
In the case of `CC(=O)NNc1nc(C)c(C(=O)NNC(=O)C(=O)Nc2ccc([N+](=O)[O-])cc2[N+](=O)[O-])s1`, the TGI is more than 100 µM.
On the same count and under the same terms, under `COc1ccc(C2Oc3ccc(Cl)cc3C=C2[N+](=O)[O-])cc1` (configuration not stated) stands more than 100 µM; under `CN1CSC(=S)N(c2cccc(C(F)(F)F)c2)C1`, 96.6 µM.
Same read-out and setting: under `COc1cc([C@@H]2c3cc4c(cc3[C@@H](NC(=O)c3ccc(C#N)cc3)C3COC(=O)[C@@H]32)OCO4)cc(OC)c1O` (some centres not stated) stands 39.4 µM.
As to `c1ccc(C2=NC3OC2c2ccccc23)cc1` (configuration not stated), the TGI is more than 10 µM.
Compound `CCc1cccc(C)c1NC(=O)CCc1nc(=S)[nH][nH]1` yielded a TGI of more than 100 µM.
Same read-out and setting: to `N#Cc1c(-c2ccc([N+](=O)[O-])cc2)cc(-c2ccc(Nc3ccnc4cc(Cl)ccc34)cc2)[nH]c1=O` belongs more than 100 µM; to `O=c1/c(=C/c2ccccc2[N+](=O)[O-])sc2nnc(-c3cccnc3)n12`, more than 100 µM.
